Measurements reported in article PMC4336329 (PLoS ONE, 2015).
Hit rate of the full screen: of about 310,000 compounds, about 14,000 (4.5%) showed an effect of 50% or more. Effects have a minus sign here. The list shows a part of the results.

Each compound was assayed against human ether-à-go-go-related gene (hERG) potassium channel (human, UniProt Q12809) (assay: primary screen, population patch clamp on CHO cells stably expressing hERG).
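Further: peak tail current of the secondary pulse compared with the same well before compound.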

Sequence of human ether-à-go-go-related gene (hERG) potassium channel (Q12809 whole entry, looked up): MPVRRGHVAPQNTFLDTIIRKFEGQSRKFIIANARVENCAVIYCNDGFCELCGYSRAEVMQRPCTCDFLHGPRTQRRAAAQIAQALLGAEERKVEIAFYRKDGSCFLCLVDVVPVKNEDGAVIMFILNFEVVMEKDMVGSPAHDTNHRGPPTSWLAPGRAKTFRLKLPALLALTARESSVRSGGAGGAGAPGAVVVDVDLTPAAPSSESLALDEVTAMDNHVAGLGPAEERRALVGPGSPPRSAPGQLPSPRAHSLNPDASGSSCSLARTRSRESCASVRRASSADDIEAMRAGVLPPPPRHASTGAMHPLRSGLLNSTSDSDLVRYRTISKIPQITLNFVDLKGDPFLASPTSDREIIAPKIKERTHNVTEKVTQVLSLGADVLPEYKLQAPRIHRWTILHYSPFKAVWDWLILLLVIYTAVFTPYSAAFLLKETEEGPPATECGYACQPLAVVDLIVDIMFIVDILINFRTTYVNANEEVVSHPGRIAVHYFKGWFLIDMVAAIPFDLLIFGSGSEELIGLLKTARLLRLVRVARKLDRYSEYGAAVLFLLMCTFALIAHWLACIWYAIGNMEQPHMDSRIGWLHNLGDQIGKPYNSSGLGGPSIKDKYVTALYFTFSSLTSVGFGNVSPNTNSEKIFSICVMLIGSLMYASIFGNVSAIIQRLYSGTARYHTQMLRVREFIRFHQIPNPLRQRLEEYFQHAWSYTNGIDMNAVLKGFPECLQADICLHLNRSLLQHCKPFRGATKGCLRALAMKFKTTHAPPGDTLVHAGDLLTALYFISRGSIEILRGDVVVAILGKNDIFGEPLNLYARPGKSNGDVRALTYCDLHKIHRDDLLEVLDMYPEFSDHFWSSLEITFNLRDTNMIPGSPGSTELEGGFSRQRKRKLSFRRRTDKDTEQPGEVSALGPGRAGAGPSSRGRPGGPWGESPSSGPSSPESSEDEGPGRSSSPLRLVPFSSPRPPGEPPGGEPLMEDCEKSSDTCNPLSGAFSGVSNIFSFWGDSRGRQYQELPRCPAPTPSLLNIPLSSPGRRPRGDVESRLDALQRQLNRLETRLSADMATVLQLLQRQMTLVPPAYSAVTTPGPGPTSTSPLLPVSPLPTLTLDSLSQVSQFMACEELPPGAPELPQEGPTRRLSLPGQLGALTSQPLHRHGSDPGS

In order of falling “hERG current change (%, negative = inhibition) at 10uM” value:
1. Cc1nn(C)c(-c2n[nH]c(=S)n2-c2ccccc2)c1Cl  32.4%
2. COc1cc(C(=O)NCCC(=O)NC2CCCc3ccccc32)cc(OC)c1OC (stereo not shown)  26.9%
3. O=C(O)c1cnc(-c2ccccc2)nc1C(F)(F)F  24.3%
4. CCC(C(=O)NCCN1CCOCC1)n1c2ccccc2c2nc(=O)cc(C)n21 (stereo not shown)  23.1%
5. CC(C)Cc1nnc(NC(=O)CS(=O)(=O)Cc2ccccc2)s1  21.5%
6. O=C1NC(=O)/C(=C/c2cccc(O)c2)N1  21%
7. COCCNC(=O)Cn1cc(C(=S)N2CCOCC2)c2ccccc21  20.5%
8. CC(=O)Nc1ccc(OCC(=O)NC(C)c2ccc(F)cc2)cc1 (stereo not shown)  18.5%
9. O=C(O)C(=O)O.O=S(=O)(c1ccc(F)cc1)N1CCN(Cc2ccccn2)CC1  15.6%
10. CC1(C)CC2(CCO1)C(Nc1ccccc1)=NC(=S)N2CC(N)=O (stereo not shown)  15.5%
11. CCOc1cc(/C=C(\C#N)c2nc3ccccc3[nH]2)ccc1OC(C)C(=O)O (stereo not shown)  14.5%
12. CCNC(=O)CC1SC(=Nc2ccc(C)cc2)NC1=O (stereo not shown)  13%
13. FC(F)(F)c1cc(-c2ccco2)nc(NCCc2ccccc2)n1  13%
14. CCc1nnc2n1N=C(c1ccc(-c3cc(Cl)ccc3Cl)o1)CS2  13%
15. COC(=O)c1ccc(N2C(=O)Nc3ccccc3N2O)cc1  12.5%
16. COc1ccc(OC)c(N/C=C/C(=O)c2ccc(OC)c(OC)c2)c1  11.5%
17. O=C(O)c1cccc2c1C(=O)N(c1ccccc1)C2  11.5%
18. Cc1ccc(C2CC(=O)N3CN(Cc4ccco4)CSC3=C2C#N)cc1 (stereo not shown)  11.3%
19. O=C(COC(=O)c1ccccc1)NC12CC3CC(CC(C3)C1)C2  9.72%
20. Cc1nn(CC(=O)Nc2ccc(C(=O)N(C)C)cc2)c(=O)c2ccccc12  7.63%
21. COc1ccc(-c2ccc(/C=C3\C(=O)N(c4ccccc4)N=C3c3ccccc3)o2)c([N+](=O)[O-])c1  6.46%
22. O=C(CN1CCN(Cc2cccc(Cl)c2)C1=O)NCC1CCCO1 (stereo not shown)  6.28%
23. COc1ccc(-c2ccc(NC(=O)c3ccco3)cc2)nn1  5.79%
24. Cn1c([N+](=O)[O-])cnc1N1CCN(c2nncs2)C1=O  4.86%
25. CCOc1ccc(CCNC(=O)COC(=O)c2sccc2C)cc1OCC  4%
26. CC1CN(c2oc(-c3ccco3)nc2C#N)CC(C)O1 (stereo not shown)  2.66%
27. Cc1ccc(NC(=O)C(C)c2ccc([N+](=O)[O-])cc2)cc1Cl (stereo not shown)  1.23%
28. COc1ccccc1-c1oc2ccccc2c1C#CCCO  0.326%
29. CCCCCOCC1CC(C/C(C)=N/NC(N)=O)(C(=O)OCC)C(=O)O1 (stereo not shown)  0.081%
30. O=C(c1ccco1)c1cn(CC(=O)N2CCCC2)c2ccccc12  -0.491%
31. COc1ccc(NC(=O)C2C3C=CC(O3)C2C(=O)NCc2cccnc2)cc1 (stereo not shown)  -1.13%
32. CC(=O)Nc1cccc(/C(C)=N/NC(=O)c2cccc(S(=O)(=O)N3CCOCC3)c2)c1  -1.18%
33. O=C(Nc1ccc(F)cc1)c1ccc(S(=O)(=O)NCC2CCCO2)cc1 (stereo not shown)  -1.24%
34. C/C(=N/NC(=O)CNC(=O)c1cccnc1)c1ccc(Cl)cc1  -1.67%
35. CCN1CCN(CC(=O)c2c[nH]c3ccccc23)CC1  -2.02%
36. CC(C)(C)SCCNS(=O)(=O)c1ccc(C#N)cc1  -3.24%
37. O=C(OC(C(=O)NC1CCCC1)c1ccccn1)c1cccs1 (stereo not shown)  -3.4%
38. COC(=O)c1c(NC(=O)CSc2nc3ccccc3c(=O)n2Cc2ccco2)sc(C)c1C  -3.44%
39. O=C(c1cccc([N+](=O)[O-])c1)c1ccccn1  -5.85%
40. Cc1cc(Cl)ccc1N1C(=O)CC(NNC(=O)c2cccnc2)C1=O (stereo not shown)  -6.52%
41. COc1ccc(CNC(=O)COC(=O)C(CCSC)NC(=O)c2ccco2)cc1OC (stereo not shown)  -9.05%
42. COc1cc(OC)cc(C(=O)N2CCCc3ccccc32)c1  -9.15%
43. COc1ccc(NC(=O)c2cc3ccccn3n2)cc1  -10.7%
44. CSCCC(C(=O)NCc1cccs1)N1C(=O)c2ccccc2C1=O (stereo not shown)  -11.4%
45. COc1ccc(C(=O)C(CN2CCOCC2)c2ccccc2)cc1.Cl (stereo not shown)  -11.7%
46. c1ccc(Cn2nnnc2C(c2ccccc2)N2CCN(c3nc4ccccc4s3)CC2)cc1 (stereo not shown)  -11.7%
47. CNNC(=O)C(C)NC(=O)c1ccc(Br)cc1 (stereo not shown)  -13.4%
48. CCn1c(N)c(C(=O)NCc2cccnc2)sc1=S  -13.9%
49. CC(C)CCOC(=O)C[N+](C)(C)CCOC1CC2CCC1(C)C2(C)C.[Cl-] (stereo not shown)  -16.3%
50. N#CC1=C(SCC(=O)c2ccc(Br)cc2)NC2=C(C(=O)CCC2)C1c1ccco1 (stereo not shown)  -17.3%
51. Cc1ccccc1N1CC(O)(c2cccs2)[N+]2=C1CCCC2.[Br-] (stereo not shown)  -25.9%
52. CCn1c(SCC(=O)Nc2ccc3c(c2)OCCO3)nnc1-c1ccco1  -25.9%
53. CN(C)S(=O)(=O)c1cccc(NC(=O)CCCSc2ccccc2)c1  -35.7%
54. COc1ccc(CCNC(=O)COc2ccc(N(C)S(=O)(=O)c3ccc(C)cc3)cc2)cc1OC  -38.1%
55. C=CCn1c(COc2ccccc2F)nnc1SCCN1C(=O)c2ccccc2C1=O  -41.6%
56. Cc1c(CN2CCN(C)C(CCO)C2)[nH]c2c(Cl)cccc12 (stereo not shown)  -42%
57. COC(=O)c1ccc(NC(=O)CCN2CCN(Cc3ccccc3)CC2)cc1  -58.6%
58. CCC(C(=O)NCc1ccco1)n1nc(C)c2c(C)n(-c3ccc(C)cc3)nc2c1=O (stereo not shown)  -58.9%
